PubChem BioAssay AID1159614 (National Center for Advancing Translational Sciences (NCATS), 2016)
In all, about 45,000 compounds went through this assay and about 65 (0.1%) were called active. Calls follow the shape of the dose curve; as a rule, active = well fitted activation curve with a large enough effect; inconclusive = small, poorly fitted or top-dose-only effect; inactive = no such curve, though single readings can be large or run the other way. The list shows a part of the results.

The molecules below were run against Galactocerebrosidase (Homo sapiens) (UniProt P54803) (assay: A Novel Cell-Based Assay to Identify Small Molecules for B -Galactocerebrosidase). Settings: 145M-Twi-hGALC-G270D cells (Twitcher mouse brain line with human GALC G270D), HMU-beta-Gal fluorescence, 48 h; series mostly up to 57.5 µM; activation: at the top concentration.
Outline: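 Fluorescence readout: HMU-β-gal cleavage by mutant GALC (0.1 mM final, citrate/phosphate pH 5.2 with 1 mg/mL taurocholate), stopped with carbonate/bicarbonate plus Triton X-100. Cells: murine Twitcher 145M-Twi expressing human G270D GALC; qHTS for activators.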
Also: 0% is about no effect; nearly all actives have a fitted effect of over 65% in size.

Sequence of UniProt P54803 (P54803 whole entry, looked up): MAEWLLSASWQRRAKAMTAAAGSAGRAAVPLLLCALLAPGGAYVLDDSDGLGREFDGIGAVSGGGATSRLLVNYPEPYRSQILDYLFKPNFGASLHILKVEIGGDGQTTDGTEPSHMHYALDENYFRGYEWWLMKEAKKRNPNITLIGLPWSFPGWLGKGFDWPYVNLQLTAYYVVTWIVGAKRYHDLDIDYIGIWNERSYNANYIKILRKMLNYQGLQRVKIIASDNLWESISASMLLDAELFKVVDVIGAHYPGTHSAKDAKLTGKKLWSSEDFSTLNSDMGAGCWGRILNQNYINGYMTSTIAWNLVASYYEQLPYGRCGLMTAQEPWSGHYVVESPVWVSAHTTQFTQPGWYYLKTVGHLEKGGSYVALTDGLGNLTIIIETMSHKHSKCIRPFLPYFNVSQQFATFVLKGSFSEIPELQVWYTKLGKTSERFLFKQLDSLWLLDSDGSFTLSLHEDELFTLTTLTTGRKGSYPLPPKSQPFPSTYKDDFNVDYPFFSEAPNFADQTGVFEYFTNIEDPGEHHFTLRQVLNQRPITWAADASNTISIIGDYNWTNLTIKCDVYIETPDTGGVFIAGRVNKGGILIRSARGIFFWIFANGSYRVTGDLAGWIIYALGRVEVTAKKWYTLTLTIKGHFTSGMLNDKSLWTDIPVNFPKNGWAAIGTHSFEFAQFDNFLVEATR

activation, inactive:
Cc1ccc(NC(=O)Cn2ncn3c(cc4ccccc43)c2=O)cc1F -11.4%
CCC1=C(c2ccc(C)cc2)S(=O)(=O)N=C1N1CCC(C(=O)Nc2ccccc2F)CC1 -9.15%
Cc1ccc(Cn2c(C(=O)NCc3ccccc3Cl)cc3sccc32)cc1 10.7%
COC(=O)c1c(SCC(=O)Nc2cc(OC)cc(OC)c2)[nH]c2ccc(C)cc2c1=O -19.9%
COc1ccc(CNC(=O)CCCN2C(=O)CSc3c2c(C)nn3-c2ccccc2)cc1 -8.55%
COC(=O)c1cc2sc(C)cc2n1Cc1cccc(OC)c1 -3.33%
COc1ccc(C2Nc3ccccc3-c3cc(C)nn32)cc1OC (configuration not stated) -15.2%
FC1(F)C(F)(F)C(F)(F)C2(F)C(F)(F)C(F)(F)C(F)(F)C(F)(F)C2(F)C1(F)F (configuration not stated) -17.9%
O=c1cc(-c2ccccc2)nc(SCc2nc(-c3ccccc3Cl)no2)[nH]1 1.47%
CCOc1cc(C(=O)Nc2cc3c(cc2N2CCOCC2)n(C)c(=O)n3C)cc(OCC)c1OCC -22.3%
CCOC(=O)c1c(-c2ccc(OC)cc2)oc2ccc(OCc3ccccc3C)cc12 6.71%
Cc1cccn2c(=O)c(C(=O)NCc3ccc(F)cc3)c(O)nc12 -9.65%
CCN(CC)CCNC(=O)C1CCN(c2nn3cc(-c4ccc(F)cc4)nc3s2)CC1 3.27%
CN(C/C=C/C#CC(C)(C)C)Cc1cccc2ccccc12 -15.4%
CCOC(=O)c1c(C)[nH]c(C)c1S(=O)(=O)N1CCCC(C(=O)NCc2cccc(C)c2)C1 (configuration not stated) -13.5%
Cc1ccccc1CNC(=O)CCCn1c(=O)c2cccn2c2cccnc21 7.27%
CNc1ncnc2c1cnn2-c1ccc(C)c(C)c1 -17.5%
COc1cc(NC(=O)c2cccc3c2C(=O)N(C2CCCCC2)C3)cc(OC)c1OC -18.3%
Oc1ccccc1-c1nc(/C=C/c2ccccc2Cl)nn1-c1ccccc1 -30.1%
Fc1ccc([C@@H]2CCNC[C@H]2COc2ccc3c(c2)OCO3)cc1 -13%
Cc1ccc(N2CC(NC(=O)c3cccs3)CC2=O)cc1C (configuration not stated) -13.5%
Cc1cccc(NC(=O)c2ccc(-n3cnc4cccnc43)cc2)c1C -30%
CCc1ccc(C(=O)c2cn(CC(=O)Nc3ccc4c(c3)OCO4)c3ccc(OC)cc3c2=O)cc1 -16.1%
CC1=C(c2ccc(C)c(C)c2)S(=O)(=O)N=C1N1CCC(C(=O)N2CCC(C)CC2)CC1 -14.7%
Cc1ccccc1OCc1ccc(-c2nc(C#N)c(NCc3cccnc3)o2)o1 -9.16%
CCOc1cc(/C=C(\C#N)C(=O)NCC2CCCO2)ccc1O (configuration not stated) -11.9%
COc1ccc(OC)c(CNC(=O)C(C)n2c(C)c3cnn(-c4ccccc4)c(=O)c3c2C)c1 (configuration not stated) -1.53%
CCOc1ccc(NC(=O)C2CCC(CNS(=O)(=O)c3ccc(Br)s3)CC2)cc1 (configuration not stated) -18.1%
CCN(CC)C(=O)Cn1c(=O)nc(-c2ccccc2F)c2cc(Cl)ccc21 -7.96%
COC(=O)c1cnc(NCc2ccc(F)cc2)c2ccccc12 -12.1%
Cc1cc(F)ccc1S(=O)(=O)Nc1ccc2c(c1)CCCN2C(=O)c1cccs1 28.2%
COc1ccc(N2C(=O)C(CC(=O)Nc3ccc(F)cc3)N(Cc3ccc4c(c3)OCO4)C2=O)cc1 (configuration not stated) -11.3%
CCCNC(=O)N1[C@H](c2ccc(C)s2)[C@@H](C)C(=O)[C@@H](C)[C@@H]1c1ccc(C)s1 -12.2%
CC(C)c1ccc(OC(=O)c2cc(-c3ccc(Cl)cc3)on2)cc1 14.3%
COc1ccc(CC(=O)NCC(c2ccc(N(C)C)cc2)N2CCOCC2)cc1 (configuration not stated) -8.93%
Cc1ccc(-n2ncc3c(NCCCn4ccnc4)ncnc32)cc1Cl -12.4%
COc1ccc(-n2c(=O)c3sc4ccccc4c3n(CC(=O)Nc3ccccc3F)c2=O)cc1 -8.13%
O=C1c2[nH]nc(-c3ccccc3O)c2C(c2ccccc2F)N1Cc1ccncc1 (configuration not stated) -13%
NC(=O)COCCN1CCN(C(c2ccccc2)c2ccc(Cl)cc2)CC1 (configuration not stated) -17.4%
CCOC(=O)Cc1ccc(NC(=O)NCc2cccn2Cc2ccccc2)cc1 -13.2%
CC(C)C1CCC(C(=O)N[C@H](Cc2ccccc2)C(=O)O)CC1 (some centres not stated) -33.9%
Cc1oc(-c2ccc(Cl)cc2)nc1CN1CCC(C(=O)NCCCN2CCN(c3cccc(Cl)c3)CC2)CC1 -0.573%
Cc1ccc2c(c1)NC(=O)C(CC(=O)Nc1ccccc1Cl)O2 (configuration not stated) -8.73%
O=C1Nc2ccccc2C1(c1ccc(O)cc1)c1ccc(O)cc1 -0.221%
Cc1ccc(Nc2nnc(-c3ccc(C)c(S(=O)(=O)N4CCOCC4)c3)c3ccccc23)c(C)c1 -16.4%
CCc1nc2nc(C)cc(Nc3ccc(OC)cc3OC)n2n1 1.21%
CCC(Cc1ccccc1)NC(=O)Cn1ncc2c3ccccc3n(Cc3ccccc3)c2c1=O (configuration not stated) -6.66%
CCOc1ccc(C(=O)c2cn(Cc3ccc(Cl)cc3)c3cc(OC)c(OC)cc3c2=O)cc1 -8.89%
Cc1ccc(Cl)cc1N1CCN(C(=O)c2cc(S(=O)(=O)N3CCCC3)cn2C)CC1 -5.17%
Cc1cc(C)n2nc(SCC(=O)Nc3ccccc3C)nc2n1 -7.74%
Cc1ccc(C)c(CN2C(=O)c3ccccc3S(=O)(=O)c3ccc(C(=O)N4CCN(c5ccccn5)CC4)cc32)c1 -11%
CCCN1C(=O)C(Cc2nc3ccccc3c(=O)n2-c2ccccc2)c2cc(C)ccc21 (configuration not stated) -39.8%
CCc1cccc(N2C(=O)N(CC(=O)NCc3cccc(OC)c3OC)c3ccccc3S2(=O)=O)c1 -1.09%
COc1cc(NC(=O)CN2C(=O)COc3ccc(S(=O)(=O)N4CCCCC4)cc32)cc(OC)c1 -6.55%
COc1ccc(C)cc1NC(=O)NCc1ccc2c(c1)CCN2C(=O)c1ccccc1 -1.11%
Cc1ccc(NC(=O)Cn2c(=O)n(-c3ccccc3)c(=O)c3c4c(sc32)CCCC4)cc1 -17.8%
COc1ccc(C)cc1Nc1nc2cc(Cl)c(Cl)cc2nc1-n1nc(C)cc1C -16.2%
COc1ccc(C)cc1NC(=O)CSc1nc(=O)n(Cc2ccncc2)c2c1CCC2 -6.25%
C=Cc1ccc(CN2C(=O)N(c3ccc(CC)cc3)S(=O)(=O)c3ccccc32)cc1 12.4%
COc1ccc(C(=O)NCCc2sc(-c3ccc(Cl)cc3)nc2C)c(OC)c1 -36.8%
COCCNC(=O)c1ccc(CSc2nc3ccncc3n2Cc2ccccc2)cc1 -5.54%
O=C(CSc1ncc2c(n1)-c1ccccc1N(Cc1ccccc1)S2(=O)=O)Nc1ccccc1 -0.725%
CCOC(=O)COc1ccc(C)cc1C(=O)c1ccn2nc(-c3ccc(C)cc3)cc2n1 -7.65%
COC(=O)c1ccc(OCC2c3cc(OC)c(OC)cc3CCN2C(=O)C(C)C)cc1 (configuration not stated) -11.9%
CCOc1ccc(NC(=O)c2c(NC(=O)Cc3ccccc3)sc3c2CCC(C)C3)cc1 (configuration not stated) -11.4%
COc1ccc(OC)c(NC(=O)CN(C)S(=O)(=O)c2ccc3[nH]c4c(c3c2)CCCC4)c1 -8.79%
CCC(=O)N1CCc2cc(S(=O)(=O)CCC(=O)N3CCN(c4cc(C)ccc4C)CC3)ccc21 -9.98%
COc1cccc(NC(=O)CSc2nc3ccccc3n2C)c1 -9.84%
CCn1c(=O)cc(SCC(=O)NCCc2cc(OC)ccc2OC)c2ccccc21 -13.4%
Cc1nnc(N2CCC(C(=O)NC3CCCCC3)CC2)c2nn(-c3ccc(Cl)cc3)c(C)c12 -10.3%
CCOc1ccc(NC(=O)c2c(NCc3ccc(C)o3)sc3c2CCC(C)C3)cc1 (configuration not stated) -11.1%
CCOc1ccc(C(=O)NCC(c2ccc3c(c2)OCO3)N2CCN(c3ccccc3F)CC2)cc1 (configuration not stated) 4.17%
Cc1ccc(NC(=O)Cn2c(=O)n(Cc3ccco3)c(=O)c3ccc(C(=O)NC4CCCC4)cc32)c(C)c1 -6.65%
COCCCNC(=O)C1CCN(Cc2nc(-c3ccc(OC)c(OC)c3)oc2C)CC1 -0.683%
COc1ccc(Cn2nnc(C(=O)Nc3cc(OC)ccc3OC)c2N)cc1 8.41%
COc1ccc(OC)c(CCNC(=O)c2c(C)nn(-c3ccc(F)cc3)c2-n2cccc2)c1 -10.7%
O=C(c1cccc(Cl)c1)N1CCN(CCc2ccccn2)CC1 -1.93%
CCOc1ccc(NC(=O)Cn2nc(-c3ccncc3)ccc2=O)cc1 -14.7%
CCCCNC(=O)c1c(C)oc2ncn(CC(C)C)c(=O)c12 -12.7%
Cc1ccccc1OCC(=O)Nc1cc(-c2cccc(Br)c2)nn1-c1ccccc1 -12.1%
O=C(NCc1nc2cccnc2n1Cc1ccc(F)cc1)c1ccccc1C(F)(F)F -8.7%
COc1ccc(NC(=O)Cn2c(=O)n(CCc3ccccc3)c(=O)c3ccccc32)cc1 -9.94%
COc1ccc2nc(NC(=O)c3cc(=O)c4ccccc4o3)sc2c1 -11.1%
Cc1noc(-c2ccc(NCc3ccccc3)c([N+](=O)[O-])c2)n1 -5.89%
COc1cccc(CNS(=O)(=O)c2cc3c(cc2C)n(C)c(=O)c(=O)n3C)c1 -13.7%
COC(=O)c1c(N)n(-c2cc(Cl)cc(Cl)c2)c2nc3ccccc3nc12 21.2%
CCC(=O)N1CCc2cc(Br)cc(S(=O)(=O)N3CCCC(C(=O)NCc4ccccc4)C3)c21 (configuration not stated) -2.08%
Cc1noc(/C=C/c2ccccc2F)c1S(=O)(=O)N1CCC(C(=O)N(C)Cc2ccco2)CC1 -2.32%
Cc1ccccc1CN1C(=O)c2ccccc2Sc2ccc(C(=O)NCc3cccs3)cc21 -11.9%
COc1ccccc1CNCCSc1nnnn1C -2.61%
Nc1c(-c2nc(-c3ccncc3)no2)nnn1CC(=O)Nc1ccccc1 0.558%
COc1ccc(C(=O)N(Cc2ccco2)Cc2ccco2)cc1 -8.85%
COc1cccc(NC(=O)Cn2c(=O)n(-c3ccc(Cl)cc3)c(=O)c3sc4ccccc4c32)c1 -11.7%
CCOc1ccc(/C=C/c2nc3ccccc3n2S(=O)(=O)c2ccc(Br)cc2)cc1 -7.48%
O=C(Cn1c(=O)nc(-c2ccccc2)c2cc(Cl)ccc21)NCCc1ccc(Cl)cc1 -4.81%
COc1ccc(S(=O)(=O)NCC(c2ccco2)N2CCOCC2)cc1C (configuration not stated) -9.08%
COc1ccccc1N1CCN(S(=O)(=O)c2c(C)sc3ncn(CC(=O)Nc4ccccc4F)c(=O)c23)CC1 -10.8%
